# Measurements reported in publication PMC9911399, “Two distinct binding modes provide the RNA-binding protein RbFox with extraordinary sequence specificity”.
# Where a chain is given by its changes, count along the chain named. The list shows a part of the results.
# T1: RBFOX1 RRM (Homo sapiens, UniProt Q9NWB1 109-208)
# T1 sequence: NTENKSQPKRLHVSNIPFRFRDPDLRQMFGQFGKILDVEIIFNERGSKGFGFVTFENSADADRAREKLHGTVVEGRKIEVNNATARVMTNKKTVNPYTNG
# B1: CCUGCCA (DNA:RNA)
# RNA: GGGAGACCGGAAUUCAGAUUGUCCCCUGCCAUUAAAUCCCGUCGUAGCCACCA
# DNA 1: CAATCTGAATTCCGGTCTCCC
# DNA 2: TGGTGGCTACGACGGGATT
# B2: GCCCUGC (DNA:RNA)
# RNA: B1 RNA with C25G, U27C, G28C, C29U, C30G, A31C
# DNA 1: CAATCTGAATTCCGGTCTCCC
# DNA 2: TGGTGGCTACGACGGGATT
# B3: AAGGGUC (DNA:RNA)
# RNA: B1 RNA with C25A, C26A, U27G, C29G, C30U, A31C
# DNA 1: CAATCTGAATTCCGGTCTCCC
# DNA 2: TGGTGGCTACGACGGGATT
# B4: AGGGUGC (DNA:RNA)
# RNA: B1 RNA with C25A, C26G, U27G, C29U, C30G, A31C
# DNA 1: CAATCTGAATTCCGGTCTCCC
# DNA 2: TGGTGGCTACGACGGGATT
# B5: ACUAUUA (DNA:RNA)
# RNA: B1 RNA with C25A, G28A, C29U, C30U
# DNA 1: CAATCTGAATTCCGGTCTCCC
# DNA 2: TGGTGGCTACGACGGGATT
# B6: CUGCCAU (DNA:RNA)
# RNA: B1 RNA with C26U, U27G, G28C, C30A, A31U
# DNA 1: CAATCTGAATTCCGGTCTCCC
# DNA 2: TGGTGGCTACGACGGGATT
# B7: GCGCCUG (DNA:RNA)
# RNA: B1 RNA with C25G, U27G, G28C, C30U, A31G
# DNA 1: CAATCTGAATTCCGGTCTCCC
# DNA 2: TGGTGGCTACGACGGGATT
# B8: CGCAUGA (DNA:RNA)
# RNA: B1 RNA with C26G, U27C, G28A, C29U, C30G
# DNA 1: CAATCTGAATTCCGGTCTCCC
# DNA 2: TGGTGGCTACGACGGGATT
# B9: UAAUCCG (DNA:RNA)
# RNA: B1 RNA with C25U, C26A, U27A, G28U, A31G
# DNA 1: CAATCTGAATTCCGGTCTCCC
# DNA 2: TGGTGGCTACGACGGGATT
# B10: UUACAUC (DNA:RNA)
# RNA: GGGAGACCGGAAUUCAGAUUGUCCUUACAUCUUAAAUCCCGUCGUAGCCACCA
# DNA 1: CAATCTGAATTCCGGTCTCCC
# DNA 2: TGGTGGCTACGACGGGATT
# B11: UUCGGAU (DNA:RNA)
# RNA: B10 RNA with A27C, C28G, A29G, U30A, C31U
# DNA 1: CAATCTGAATTCCGGTCTCCC
# DNA 2: TGGTGGCTACGACGGGATT
# B12: CGACUAA (DNA:RNA)
# RNA: B1 RNA with C26G, U27A, G28C, C29U, C30A
# DNA 1: CAATCTGAATTCCGGTCTCCC
# DNA 2: TGGTGGCTACGACGGGATT
# B13: UCGGUAA (DNA:RNA)
# RNA: B1 RNA with C25U, U27G, C29U, C30A
# DNA 1: CAATCTGAATTCCGGTCTCCC
# DNA 2: TGGTGGCTACGACGGGATT
# B14: GAUUAUG (DNA:RNA)
# RNA: B10 RNA with U25G, U26A, A27U, C28U, C31G
# DNA 1: CAATCTGAATTCCGGTCTCCC
# DNA 2: TGGTGGCTACGACGGGATT
# B15: AUGCUGC (DNA:RNA)
# RNA: B10 RNA with U25A, A27G, A29U, U30G
# DNA 1: CAATCTGAATTCCGGTCTCCC
# DNA 2: TGGTGGCTACGACGGGATT
# B16: CUGCCUG (DNA:RNA)
# RNA: B10 RNA with U25C, A27G, A29C, C31G
# DNA 1: CAATCTGAATTCCGGTCTCCC
# DNA 2: TGGTGGCTACGACGGGATT
# B17: UCAAUAA (DNA:RNA)
# RNA: B1 RNA with C25U, U27A, G28A, C29U, C30A
# DNA 1: CAATCTGAATTCCGGTCTCCC
# DNA 2: TGGTGGCTACGACGGGATT
# B18: UCCGAUA (DNA:RNA)
# RNA: B1 RNA with C25U, U27C, C29A, C30U
# DNA 1: CAATCTGAATTCCGGTCTCCC
# DNA 2: TGGTGGCTACGACGGGATT
# B19: GUUCUAU (DNA:RNA)
# RNA: B10 RNA with U25G, A27U, A29U, U30A, C31U
# DNA 1: CAATCTGAATTCCGGTCTCCC
# DNA 2: TGGTGGCTACGACGGGATT
# B20: AAAUGGC (DNA:RNA)
# RNA: B10 RNA with U25A, U26A, C28U, A29G, U30G
# DNA 1: CAATCTGAATTCCGGTCTCCC
# DNA 2: TGGTGGCTACGACGGGATT
# Molecular target: T1, RBFOX1 RRM
# Test: EMSA; HiTS-Eq, 1 nM pool, 10 min; buffer printed only for the single-RNA assays: 10 mM Tris pH 7.5, 150 mM NaCl, 3.4 mM EDTA, 0.001% NP-40, 30 C
# Conditions: tags: His6 N-terminal (pET28a); label: 5' 32P
# Outline: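 Purified RbFox RRM, wild type or mutant, was incubated for 10 min in 50 µL with 1 nM of a 5′-radiolabelled RNA pool carrying 7 randomized nucleotides, whose flanks were annealed to DNA oligonucleotides, over a series of increasing protein concentrations. Unbound RNA was resolved on 8% native PAGE, cut out, reverse-transcribed, barcoded by PCR and sequenced on an Illumina HiSeq 2500. Relative association constants were derived from changes in read counts for each RNA species versus the control reaction and normalised to the cognate motif.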
row,Binder,binding signal
1,B1,0.00896 KA relative to UGCAUGU
2,B2,0.0133 KA relative to UGCAUGU
3,B3,0.0111 KA relative to UGCAUGU
4,B4,0.0198 KA relative to UGCAUGU
5,B5,0.00048 KA relative to UGCAUGU
6,B6,0.0074 KA relative to UGCAUGU
7,B7,0.0316 KA relative to UGCAUGU
8,B8,0.67 KA relative to UGCAUGU
9,B9,0.00439 KA relative to UGCAUGU
10,B10,0.00129 KA relative to UGCAUGU
11,B11,0.00504 KA relative to UGCAUGU
12,B12,0.00165 KA relative to UGCAUGU
13,B13,0.0131 KA relative to UGCAUGU
14,B14,0.0129 KA relative to UGCAUGU
15,B15,0.00746 KA relative to UGCAUGU
16,B16,0.0391 KA relative to UGCAUGU
17,B17,0.00079 KA relative to UGCAUGU
18,B18,0.00441 KA relative to UGCAUGU
19,B19,0.00908 KA relative to UGCAUGU
20,B20,0.00657 KA relative to UGCAUGU
